Article PMC4336329 (PLoS ONE, 2015)
Screen size: about 310,000 compounds; about 2,200 (0.71%) showed an effect of 50% or more. The effect is printed as a negative number. The list shows a part of the results.

The molecules below were run against human ether-à-go-go-related gene (hERG) potassium channel (human, UniProt Q12809) (assay: primary screen, population patch clamp on CHO cells stably expressing hERG).
Chain of human ether-à-go-go-related gene (hERG) potassium channel (Q12809 whole entry, looked up): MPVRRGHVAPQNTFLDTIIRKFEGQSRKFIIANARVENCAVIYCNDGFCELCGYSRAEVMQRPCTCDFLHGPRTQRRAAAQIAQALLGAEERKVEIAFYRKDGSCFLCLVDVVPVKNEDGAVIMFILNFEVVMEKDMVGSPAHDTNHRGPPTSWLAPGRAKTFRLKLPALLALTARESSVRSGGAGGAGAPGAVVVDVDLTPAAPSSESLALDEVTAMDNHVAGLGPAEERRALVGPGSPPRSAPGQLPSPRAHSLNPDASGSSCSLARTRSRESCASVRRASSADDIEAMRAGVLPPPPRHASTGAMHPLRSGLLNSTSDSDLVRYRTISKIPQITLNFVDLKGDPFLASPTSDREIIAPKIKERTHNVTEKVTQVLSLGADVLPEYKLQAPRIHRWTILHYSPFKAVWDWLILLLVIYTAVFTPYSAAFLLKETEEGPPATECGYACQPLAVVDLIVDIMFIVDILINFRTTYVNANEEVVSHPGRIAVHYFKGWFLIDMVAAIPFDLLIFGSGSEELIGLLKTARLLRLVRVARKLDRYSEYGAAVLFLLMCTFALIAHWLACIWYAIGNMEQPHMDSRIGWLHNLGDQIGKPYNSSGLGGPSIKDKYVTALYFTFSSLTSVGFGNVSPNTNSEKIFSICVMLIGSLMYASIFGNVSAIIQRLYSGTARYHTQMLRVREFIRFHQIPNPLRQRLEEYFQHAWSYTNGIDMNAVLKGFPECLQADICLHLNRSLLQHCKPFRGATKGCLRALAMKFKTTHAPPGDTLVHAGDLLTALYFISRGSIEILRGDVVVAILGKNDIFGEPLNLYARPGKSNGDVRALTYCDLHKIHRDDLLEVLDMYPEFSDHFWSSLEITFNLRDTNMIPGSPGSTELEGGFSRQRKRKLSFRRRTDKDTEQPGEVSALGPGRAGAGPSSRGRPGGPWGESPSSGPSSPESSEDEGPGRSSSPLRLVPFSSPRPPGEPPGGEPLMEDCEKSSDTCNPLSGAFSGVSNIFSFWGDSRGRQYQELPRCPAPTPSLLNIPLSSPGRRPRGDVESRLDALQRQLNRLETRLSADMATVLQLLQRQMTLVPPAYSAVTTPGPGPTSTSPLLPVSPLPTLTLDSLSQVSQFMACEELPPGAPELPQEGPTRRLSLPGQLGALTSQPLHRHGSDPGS

| SMILES | hERG current change (%, negative = inhibition) at 1uM |
| --- | --- |
| CCN1CCN(C(=O)CCCCCn2c(=O)[nH]c3cc(C(=O)OC)ccc3c2=O)CC1 | 12.4% |
| CN(C)C(CN1C(=O)C2CC=CCC2C1=O)c1cn(C)c2ccccc12.Cl (stereo not drawn) | 9.01% |
| Cc1cccn2c(=O)c(/C=C(\C#N)C(=O)NCc3ccco3)c(N3CCCC(C)C3)nc12 (stereo not drawn) | -3.62% |
| C/C(=N\NC(=O)c1cc(Cl)ccc1O)c1ccc(Br)s1 | 7.57% |
| Nn1c(Cc2cccc3ccccc23)n[nH]c1=S | 15.2% |
| Cc1noc(NS(=O)(=O)c2ccc(NC(=O)CSc3nc4c(cc3C#N)CCC4)cc2)c1C | 8.19% |
| CCCCOC(=O)c1nc[nH]c1C(=O)OCCCC | 11.4% |
| Cc1cc(C)cc(C(=O)N/N=C/c2ccoc2)c1 | 7.53% |
| O=C(CCN1C(=O)C2C3C=CC(C3)C2C1=O)Nc1ccccc1 (stereo not drawn) | 20.3% |
| COc1cc(C(=O)OCC(=O)N2CCCCC2C)cc(NC(=O)c2cccs2)c1OC (stereo not drawn) | 11.3% |
| OCC12COC(c3ccccc3)N1C(c1ccccc1)OC2 (stereo not drawn) | 19.6% |
| O=C(NC(=O)N1CCN(c2ccccc2F)CC1)c1ccccc1 | 14% |
| CCC1C(C#N)=C(SCC(N)=O)NC2=C1C(=O)CC(C)(C)C2 (stereo not drawn) | 10.6% |
| CN1CCN(c2ccc(N)cc2)CC1 | 1.94% |
| Cc1cc(NC(=O)c2cccs2)no1 | 12.4% |
| S=C(NCCCc1ccccc1)Nc1ccc(Cl)cc1 | 26.3% |
| Cc1nc2ccc(NC(=S)N3CCN(c4ccccn4)CC3)cc2nc1C | -0.0707% |
| COc1ccc(C[C@H]2CN3C(=NC[C@H]3Cc3ccccc3)N2CCNC(=O)CCC2CCCCC2)cc1 | -49.2% |
| CC1(c2nnc(Cc3ccccc3)o2)CC(c2ccc(OC(F)(F)F)cc2)=NO1 (stereo not drawn) | -2.18% |

| SMILES | hERG current change (%, negative = inhibition) at 1uM |
| --- | --- |
| COc1ccc(NC(=O)c2ccco2)c(NC(=O)c2ccc([N+](=O)[O-])cc2)c1 | -7.99% |
| COc1cc(/C=C2\SC(=S)N(NS(=O)(=O)c3ccc(C)cc3)C2=O)ccc1O | 13% |
| COc1ccc([C@H]2CC(=O)C=C(c3ccc(OC)nc3)C2)cc1 | 15.7% |
| CC1=CC(c2ccccc2)n2nc(N3C(=O)CCC3=O)nc2N1.O=C(O)CCC(=O)O (stereo not drawn) | 8.85% |
| CCOC(=O)c1sc(=S)n(-c2ccc(F)c(F)c2)c1N | 12.4% |
| O=C(NCc1ccc2c(c1)OCO2)c1ccc(CSCc2ccc(Cl)cc2)o1 | 4.23% |
| CN(C)c1ccc(CN(C(=O)c2ccccc2Br)C2CCS(=O)(=O)C2)cc1 (stereo not drawn) | 14.7% |
| CCOc1cccc(C(=O)NC(=S)Nc2ccc(Cl)cc2C(=O)O)c1 | 14.5% |
| COc1cccc(-c2cccc(NC(=O)C3CCN(Cc4ccon4)CC3)c2)c1 | 12.8% |
| CCOC(=O)CN(c1ccccc1)S(=O)(=O)c1ccc(F)cc1 | 14.3% |
| O=C(NNS(=O)(=O)c1ccc(F)cc1)C1CCCCC1 | 18.5% |
| Cc1ccc(S(=O)(=O)N(CC(=O)NCCSCc2ccco2)c2ccc(F)cc2)cc1 | 4.21% |
| CCC(C)c1ccc(NC(=O)C2CC2)cc1 (stereo not drawn) | 5.45% |
| CC1CCCN(S(=O)(=O)c2ccccc2[N+](=O)[O-])C1 (stereo not drawn) | 3.13% |
| COc1ccc(CN(C)CC(=O)Nc2ccccc2C(F)(F)F)cc1 | 8.77% |
| COc1ccc(-c2ccc(Nc3ccc(S(=O)(=O)N4CCCC4)cc3)nn2)cc1OC | 9.5% |
| COc1ccc(/C=C/c2nc(-c3ccccc3)cc(=O)[nH]2)cc1 | 3.52% |
| O=c1[nH]c(SCc2ccccc2Cl)nc2[nH]ncc12 | 8.56% |
| COc1ccc(CCNC(=S)Nc2cccc(C)c2C)cc1 | 0.5% |

| SMILES | hERG current change (%, negative = inhibition) at 1uM |
| --- | --- |
| CC(=O)c1c(NC(=O)C(C)C)nc(C)nc1-c1ccccc1 | 3.66% |
| Cc1ccccc1N(C(=O)c1ccco1)C(C(=O)NC1CCCC1)c1cccnc1 (stereo not drawn) | 12.7% |
| CCCN(CC(=O)Nc1ccccc1OC)C(=O)C1=COCCO1 | 5.06% |
| CCOC(=O)C1CCN(C(=O)CCC(=O)NCCc2ccc(Cl)cc2)CC1 | 8.31% |
| CCOC(=O)c1cc(-c2ccccc2)sc1NC(=O)C(C)(C)C | 9% |
| COc1ccccc1NCC(O)COc1ccc(C(C)(C)C)cc1.O=C(O)C(=O)O (stereo not drawn) | 14.9% |
| Nc1nc(SCC(=O)N2CCc3ccccc3C2)[nH]c(=O)c1-c1ccccc1 | 14.8% |
| CCOC(=O)N1CCN(Cc2nc3cc(NC(=O)c4cccs4)ccc3n2C)CC1 | -6.08% |
| CCc1ccc(C(=O)CSc2n[nH]c(C)n2)cc1 | 3.75% |
| COc1cc(/C=N/Nc2nc3ccccc3s2)ccc1O | 3.76% |
| COC(=O)CCCC1=CC2=CC(=O)C(C)(O)C(=O)C2=CO1 (stereo not drawn) | 6.76% |
| COCCCn1c2nc3ccccc3nc2c2c(=O)n(-c3ccccc3OC)cnc21 | 9.83% |
| CC(C)Cn1c(N)c(-c2nc(C(C)C)c(C(=O)c3ccccc3F)s2)c(=O)n(C)c1=O | 14.8% |
| O=C(CSC1=NCCS1)Nc1ccc(S(=O)(=O)N2CCCCCC2)cc1 | 11.1% |
| Cc1cnc(NC(=O)CSc2nnc(-c3ccncc3)n2C2CCCCC2)s1 | -2.34% |
| N#CCC(=O)N/N=C\c1cccc(OC/C=C/c2ccccc2)c1 | 11.6% |
| Cn1c(=O)n(CCc2ccccc2)c2ccccc21 | 11.8% |
| COc1ccc(-n2c(CCC(=O)O)ccc2-c2ccc(F)cc2)c(OC)c1 | 10.4% |
| COC(=O)CN1C(=O)N/C(=C/c2ccc(OC)cc2)C1=O | 5.95% |
